Out of some 310,000 compounds screened, about 18,000 (5.8%) were called active. The shares of active, inactive and inconclusive entries below differ from those in the screen. The call rests on the fitted dose curve; in most records, active means well fitted inhibition curve with a large enough effect; inconclusive means small, poorly fitted or top-dose-only effect, or another doubt; inactive means no such curve, though single readings can be large or run the other way. Potencies of inconclusive entries are left out as doubtful fits.
Test: Primary qHTS for delayed death inhibitors of the malarial parasite plastid, 48 hour incubation
Details: P. falciparum luciferase growth in erythrocytes; series mostly up to 28.7 µM
How it was run: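 Luciferase-expressing P. falciparum in infected erythrocytes (2% hematocrit, 0.1% parasitemia final) in RPMI 1640/0.5% Albumax were exposed to compound for 48 hours at 37 C, 5% CO2; growth read as luminescence.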
On the % scale 0 is the no-effect control and ±100 the full control effect; potency means the concentration at half of the fitted maximal effect; tags describe the fitted curve by direction and shape.

| SMILES | Potency | activity change, negative = inhibition |
| --- | --- | --- |
| O=C(O)c1ccc(NC(=S)NC(=O)C(c2ccccc2)c2ccccc2)cc1 | inconclusive [inhibitor, partial curve, poor fit] |  |
| CC(=O)c1ccccc1OC(=O)CCN1C(=O)c2ccccc2C1=O | inactive |  |
| CCN(CC)c1ccc(/C=C2\CCC(/C=C(\C#N)C(=O)Nc3ccccc3F)=C2N2CCOCC2)cc1 | inactive |  |
| CCOC(=O)c1c(C)nc(C)c(C(=O)OCC)c1-c1cccc(N)c1 | inactive |  |
| CCOC(=O)N1CCC2(O)CCCCC2C1c1ccc(F)cc1 (stereo not drawn) | inconclusive [inhibitor, single point] |  |
| Cc1ccc(C(=O)CC(=O)COc2ccc(Cl)cc2)cc1 | inconclusive [inhibitor, partial curve, poor fit] |  |
| COc1ccc(CNC(=O)CN2C(=O)CCSc3ccc(S(=O)(=O)N4CCCC4)cc32)cc1 | inactive |  |
| c1nc(N2CCC3(CC2)OCCO3)c2c3c(sc2n1)CCCC3 | inconclusive [inhibitor, single point] |  |
| CCCn1c(N)c(C(=O)CSc2nnc(Cc3cccs3)n2C2CC2)c(=O)n(C)c1=O | active: 4.65 µM |  |
| Cc1ccc(C(=O)CN(C(=O)c2ccc(Cl)c(Cl)c2)N2C(=O)C3C4C=CC(C4)C3C2=O)cc1 (stereo not drawn) | inconclusive [inhibitor, partial curve, poor fit] |  |
| CCc1cccc(C)c1NC(=O)CCCn1c(=O)c2cccn2c2cccnc21 | inconclusive [inhibitor, partial curve, poor fit] |  |
| Cc1ccc(NS(=O)(=O)c2csc(C(N)=O)c2)c(C)c1 | active: 7.38 µM |  |
| Cc1[nH]nc2ncc(C(=O)c3ccccc3O)cc12 | inconclusive [inhibitor, partial curve] |  |
| CCCCCCCNC1=CC(=O)CC(c2ccccc2)C1 (stereo not drawn) | active: 9.28 µM |  |
| COCCN=C1NN=C(c2cc(C)n(CC3CCCO3)c2C)CS1 (stereo not drawn) | inconclusive [inhibitor, single point] |  |
| CC(NC(=O)Cn1cc2c(n1)CCCCC2)c1ccccc1 (stereo not drawn) | inactive |  |
| O=C(CNCc1cccnc1)Nc1cc(C(F)(F)F)ccc1N1CCOCC1 | inconclusive [inhibitor, single point] |  |
| Cn1c(=O)[nH]c(=O)c2c1nc(N1CCCCCC1)n2CCN1CCCCCC1 | inconclusive [inhibitor, single point] |  |
| CN(CCn1ccnc1)Cc1cn(Cc2ccccc2)nc1-c1ccc2c(c1)OCO2 | inconclusive [inhibitor, partial curve] |  |
| Cc1csc(SCC(=O)Nc2sc3c(c2C#N)CCC3)n1 | inactive |  |
| COc1ccc(OC)c(NC(=O)CSC2=C(C#N)C(c3ccco3)C3=C(CCCC3=O)N2)c1 (stereo not drawn) | active: 9.28 µM |  |
| O=C(NC(=S)N1CCN(C(c2ccccc2)c2ccccc2)CC1)c1ccc(S(=O)(=O)N2CCOCC2)cc1 | inconclusive [inhibitor, partial curve] |  |
| CC(=O)c1c(C)[nH]c(C(=O)Nc2cccc(C)n2)c1C | inactive |  |

| SMILES | Potency | activity change, negative = inhibition |
| --- | --- | --- |
| Cc1ccccc1-n1nnnc1SCc1ncc(-c2ccccc2)o1 | inactive |  |
| CC(C)C[C@H](NC(=O)c1nc[nH]c1C(=O)NCc1ccc(CNC(=O)OC(C)(C)C)cc1)C(=O)OC(C)(C)C | inconclusive [inhibitor, partial curve, poor fit] |  |
| NS(=O)(=O)c1ccc(NC(=O)c2ccc3c(c2)OCO3)cc1 | inactive |  |
| Cc1ccc(C(=O)N/N=C/c2cc(C)n(-c3ccc(Br)cc3)c2C)cc1[N+](=O)[O-] | inactive |  |
| CCS(=O)(=O)N1N=C(c2cccs2)CC1c1cc2cc(C)ccc2nc1Cl (stereo not drawn) | inconclusive [inhibitor, single point] |  |
| CCN1/C(=C/c2cc[n+](C)cc2)C=Cc2cc(C)ccc21 | active: 0.738 µM |  |
| COCCN1C(=O)c2ccccc2C(C(=O)Nc2ccc3c(c2)OCCO3)C1c1ccc(F)cc1 (stereo not drawn) | inconclusive [inhibitor, partial curve, poor fit] |  |
| Cn1c(COc2ccc(Cl)cc2)nc2ccccc2c1=O | inconclusive [inhibitor, full curve, poor fit] |  |
| CC(C)N(C(=O)Cn1c(-c2ccccc2Cl)nc2ccccc21)c1ccccc1 | inconclusive [inhibitor, partial curve, poor fit] |  |
| O=C(Nc1ccc(Cl)c(Cl)c1)C1C2C=CC3(O2)C1C(=O)N(CCN1CCCCC1)C3C(=O)NC1CCCCC1 (stereo not drawn) | inconclusive [inhibitor, single point] |  |
| CCOc1ccc(NC(=O)CN2CCN(S(=O)(=O)c3ccc(Cl)cc3)CC2)cc1 | inconclusive [inhibitor, partial curve, poor fit] |  |
| Cc1cc(-c2nnc(SCC(=O)N3C(C)CCCC3C)o2)no1 (stereo not drawn) | inactive |  |
| O=C(Nc1ccncc1)c1cc(S(=O)(=O)N2CCN(c3ccccc3)CC2)ccc1Cl | active: 11.7 µM |  |
| CCc1ccc(Nc2nnc(SCC(=O)N(C)CC(=O)Nc3ccccc3CC)s2)cc1 | inactive |  |
| CC(C)(C)c1ccc(C(=O)NCCC(=O)NC2=NCCS2)cc1 | inactive |  |
| O=C(Nc1nc2ccc(Cl)cc2s1)[C@@H]1CCCN1C(=O)c1cccs1 | inactive |  |
| O=C1NC(=O)C(=Cc2cc(Cl)ccc2OCc2ccc(C(=O)O)cc2)C(=O)N1 | inconclusive [inhibitor, single point] |  |
| CSc1ccc(NC(=O)C(C)N2CCN(C)CC2)cc1 (stereo not drawn) |  | inactive: 3.66% [at 0.00184 µM] |
| O=C(COC(=O)c1cccc(Br)c1)NCCNC(=O)COC(=O)c1cccc(Br)c1 | active: 0.465 µM |  |
| COc1ccc(C2CC(=O)C3=C(C2)Nc2ccccc2N(C(=O)C2CC2)C3c2cccnc2)cc1OC (stereo not drawn) | inconclusive [inhibitor, partial curve, poor fit] |  |
| O=C(Nc1ccccc1)C1=C[C@H](c2ccccc2)C[C@H](OCc2ccc(CO)cc2)O1 | inconclusive [inhibitor, partial curve] |  |
| CCN(CC1COc2ccccc2O1)C(=O)c1ccc(Cl)c(S(=O)(=O)N2CC(C)OC(C)C2)c1 (stereo not drawn) | inconclusive [inhibitor, single point] |  |
| CCCC(C)NC(=O)CN(c1ccc2c(c1)OCCO2)S(=O)(=O)c1ccccc1 (stereo not drawn) | inconclusive [inhibitor, partial curve, poor fit] |  |

| SMILES | Potency | activity change, negative = inhibition |
| --- | --- | --- |
| CC(C)(C)C(=O)Nc1nnc(-c2ccccc2)c(-c2ccccc2)n1 | inconclusive [inhibitor, single point] |  |
| COc1cccc(Sc2ccccc2/C=N/NC(N)=O)c1 | inconclusive [inhibitor, full curve, poor fit] |  |
| O=C(NCCCn1ccnc1)c1ccc(N2CCCCCC2)c([N+](=O)[O-])c1 | inconclusive [inhibitor, partial curve] |  |
| Cc1ccc(C2=NN(C(=O)CNCCO)C(c3cccs3)C2)cc1 (stereo not drawn) | inconclusive [inhibitor, single point] |  |
| CC(C)(C)C(=O)CC1(O)C(=O)N(Cc2ccc(Cl)cc2)c2ccccc21 (stereo not drawn) | inconclusive [inhibitor, full curve, poor fit] |  |
| O=C(NCCCN1CCOCC1)c1ccc2c(c1)N(Cc1ccc(Cl)cc1)C(=O)c1ccccc1S2=O (stereo not drawn) | inconclusive [inhibitor, partial curve, poor fit] |  |
| CN1CCc2ccccc2CC1=O | inactive |  |
| Cc1occc1C(=O)N1CCN(C(c2ccccc2)c2ccccc2)CC1 | active: 1.31 µM |  |
| Cc1ccc(-n2c(C)cc(C(=O)COc3c(CO)cc(F)cc3CO)c2C)cc1C | inconclusive [inhibitor, partial curve] |  |
| Cc1cc(S(=O)(=O)NCC(C)C)ccc1OCC(=O)N1CCN(Cc2ccccc2)CC1 | inconclusive [inhibitor, single point] |  |
| CC1(CO)COC(c2ccccc2)=N1 (stereo not drawn) | inactive |  |
| COc1ccccc1N1CCN(CC(O)COc2ccc3c(C)cc(=O)oc3c2)CC1 (stereo not drawn) | inconclusive [inhibitor, single point] |  |
| COC(=O)[C@@]1(Cc2ccc(OC)cc2)[C@@H]2[C@@H](CC(=O)[C@H]2CC(=O)C(=O)N(C)C)CN1C(=O)c1ccccc1 | inconclusive [inhibitor, single point] |  |
| CC(C)(C)c1cc(=O)n2c(nc3ccccc32)[nH]1 | inconclusive [inhibitor, single point] |  |
| CC(C)CN1CCC(=O)N(CCSc2ccc(Br)cc2)CC1 | inactive |  |
| COc1cc2c3c(c1OC)C1(C=CC(=O)C=C1)CC3N(C(=O)c1ccccc1)CC2 (stereo not drawn) | inconclusive [inhibitor, partial curve, poor fit] |  |
| CC(C)/C=C/C(=O)N1CCCC(N2CCN(c3ccccc3F)CC2)C1 (stereo not drawn) | inactive |  |
| Cc1ccc(/C=N/NC(=O)NC23CC4CC(CC(C4)C2)C3)o1 | inconclusive [inhibitor, full curve, poor fit] |  |
| COc1ccc(NC(=O)c2nc[nH]c2C(=O)N[C@@H](CC(C)C)C(=O)OC(C)(C)C)cc1 | active: 10.4 µM |  |
| CC(NCc1ccc(-c2ccccc2)cc1)C(O)c1ccccc1 (stereo not drawn) | active: 2.94 µM |  |
| COc1cc2c(cc1OC)C(COc1ccccc1OC)N(C(=O)C(C)C)CC2 (stereo not drawn) | inconclusive [inhibitor, partial curve] |  |
| COc1ccccc1OCCNC(=O)C(CCSC)NC(=O)COc1ccccc1 (stereo not drawn) | inconclusive [inhibitor, single point] |  |

Reference: PubChem BioAssay AID504832 (National Center for Advancing Translational Sciences (NCATS), 2011)
